Data: publication PMC4336329 (PLoS ONE, 2015)
The campaign covered roughly 310,000 compounds. About 14,000 (4.5%) showed an effect of 50% or more. The effect is printed as a negative number. This is one part of the list.

Molecular target: human ether-à-go-go-related gene (hERG) potassium channel (human, UniProt Q12809)
Test: primary screen, population patch clamp on CHO cells stably expressing hERG
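Also: peak tail current of the secondary pulse compared with the same well before compound.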

Sequence of human ether-à-go-go-related gene (hERG) potassium channel (Q12809 whole entry, looked up): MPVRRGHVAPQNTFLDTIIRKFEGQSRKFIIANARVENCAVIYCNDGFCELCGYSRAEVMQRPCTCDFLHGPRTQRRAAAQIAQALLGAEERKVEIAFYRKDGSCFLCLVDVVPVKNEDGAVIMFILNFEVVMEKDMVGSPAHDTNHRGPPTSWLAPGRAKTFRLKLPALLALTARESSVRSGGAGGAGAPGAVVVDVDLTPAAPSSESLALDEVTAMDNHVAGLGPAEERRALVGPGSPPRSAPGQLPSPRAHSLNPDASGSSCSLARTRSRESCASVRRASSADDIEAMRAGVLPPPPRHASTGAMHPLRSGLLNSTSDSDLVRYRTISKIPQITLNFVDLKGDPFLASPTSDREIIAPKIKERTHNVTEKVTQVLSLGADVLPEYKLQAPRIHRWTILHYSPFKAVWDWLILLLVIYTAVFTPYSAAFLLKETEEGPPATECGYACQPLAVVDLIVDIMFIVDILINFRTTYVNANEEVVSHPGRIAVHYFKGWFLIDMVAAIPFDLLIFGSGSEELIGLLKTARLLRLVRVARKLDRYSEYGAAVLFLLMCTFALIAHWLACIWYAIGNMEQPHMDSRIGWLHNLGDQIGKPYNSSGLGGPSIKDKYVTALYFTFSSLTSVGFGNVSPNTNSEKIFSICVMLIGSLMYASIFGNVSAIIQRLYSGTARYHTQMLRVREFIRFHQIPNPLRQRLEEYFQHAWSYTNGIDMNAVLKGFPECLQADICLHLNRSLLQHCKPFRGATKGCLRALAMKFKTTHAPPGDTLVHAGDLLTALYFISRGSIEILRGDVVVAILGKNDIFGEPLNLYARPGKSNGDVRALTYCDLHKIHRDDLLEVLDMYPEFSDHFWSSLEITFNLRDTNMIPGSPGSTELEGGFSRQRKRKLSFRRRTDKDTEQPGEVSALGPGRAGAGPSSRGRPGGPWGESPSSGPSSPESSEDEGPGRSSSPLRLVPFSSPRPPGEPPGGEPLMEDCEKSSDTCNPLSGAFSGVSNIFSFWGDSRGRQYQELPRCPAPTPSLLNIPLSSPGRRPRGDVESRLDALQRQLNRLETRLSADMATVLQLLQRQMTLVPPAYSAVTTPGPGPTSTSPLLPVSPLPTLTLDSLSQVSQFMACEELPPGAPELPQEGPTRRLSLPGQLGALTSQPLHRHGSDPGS

SMILES	hERG current change (%, negative = inhibition) at 10uM [%]
CCOc1cc(Cl)c(NC(C)=O)cc1OCC	10
CCCCn1c(N)c(N(CC(C)C)C(=O)c2ccc(S(=O)(=O)N3CCC(C)CC3)cc2)c(=O)[nH]c1=O	-6.16
Cc1cc(NC(=O)CN2CCN(Cc3ccccc3)CC2)nc2c1c(=O)oc1ccccc12	0.836
CCOc1ccc(C(C(=O)NC(C)(C)C)N(CCOC)C(=O)CCC(=O)Nc2nccs2)cc1 (centres unmarked)	5.85
CC(O)c1nc2ccc(Cc3ccc4nc(C(C)O)[nH]c4c3)cc2[nH]1 (centres unmarked)	-2.63
COc1ccc(NC(=O)CCCC(=O)O)cc1Cl	3.86
Cc1ccc2cc(CN(CC3CCCO3)C(=O)Nc3ccccc3F)c3nnnn3c2c1 (centres unmarked)	8.59
O=C(CCCC(=O)OCC(=O)c1cccs1)Nc1ccc(Oc2ccccc2)cc1	5.16
CN(C)CCCNC(=O)C(=O)NCC1OCCN1S(=O)(=O)c1cc(F)ccc1F (centres unmarked)	-8.23
CCn1c(SCC(=O)Nc2nnc(C)s2)nnc1-c1ccncc1	7.45
COc1ccc(F)cc1S(=O)(=O)NCc1ccccc1	-3.36
Cc1sc2nc(SCC(=O)NCc3cccs3)[nH]c(=O)c2c1C	19.7
O=C1CC(c2ccc(Cl)cc2)CC(=O)C1CS(=O)(=O)c1ccccc1 (centres unmarked)	8.77
COc1cccc(CC(NC(C)=O)C(=O)NC2CCN(S(=O)(=O)c3ccc4ccccc4c3)CC2)c1 (centres unmarked)	3.4
COc1cc(/C=N/n2c(SC)nnc(C(C)(C)C)c2=O)ccc1O	-2.48
COc1ccc(C(=O)NC(=O)COC(=O)c2ccc3ncsc3c2)cc1	9.23
O=C(O)CC(C(=O)O)c1ccc(OCCCCOc2ccc(C(CC(=O)O)C(=O)O)cc2)cc1 (centres unmarked)	13.4
Clc1ccc2c(c1)C(c1ccccc1Cl)=NCc1nnc(N3CCN(CCOc4ccccc4)CC3)n1-2.O=C(O)/C=C/C(=O)O	-72.7
CC[C@@H]1[C@H]2CCCC(=O)N3CC[C@@H](C[C@@H]1OC(=O)Nc1ccccc1)[C@@H]23	-19.3
O=C(O)c1cc(/C=C/c2ccc(N3CCOCC3)c([N+](=O)[O-])c2)nc2ccccc12	5.51
CCOCCOC(=O)c1[nH]c2c(c1C)C(=O)CC(c1ccc(N(C)C)cc1)C2 (centres unmarked)	0.636
COc1ccc(-n2c(Cc3cccs3)nnc2SCC(=O)Nc2ccc3c(c2)OCCO3)cc1	-31.1
Cc1cc2oc(=O)cc(CN3CCN(Cc4ccccc4)CC3)c2cc1O	-53.3
CC(/C=C/c1ccco1)=N\NC(=O)CNc1cccc(C)c1	18.1
Cc1ccc(NC(=O)COC(=O)CCC(=O)c2cccs2)cc1S(=O)(=O)N1CCOCC1	-26.3
CCN(C(=O)c1cnc(NC(C)C)cc1C(F)(F)F)c1ccc(Cl)cc1	-36.4
COc1ccc(OCc2nc3c4cc(OC)c(OC)cc4nc(=S)n3[nH]2)cc1	11.7

SMILES	hERG current change (%, negative = inhibition) at 10uM [%]
O=C(NCCc1csc(-c2cccnc2)n1)c1ccco1	13.4
COC(=O)c1c(C#N)c(N)nc2c1CCCC2	11.5
COc1ccc2nc(NC(=O)Cc3cccs3)sc2c1	4.23
CC(=O)NC(CC(=O)NNC(=O)c1cc2ccccc2cc1O)c1ccccc1 (centres unmarked)	6.83
CNC(=O)c1cc(C(=O)c2ccc(Cl)cc2)c[nH]1	17.1
COC(=O)c1ccc(SCC(=O)NCc2ccccc2)c([N+](=O)[O-])c1	2.47
Oc1ccc(Br)cc1/C=N/NC(=S)NCCc1ccccc1	4.94
NC(=O)CSC1=Nc2ccccc2C2=NC(c3ccccc3)C(=O)N12 (centres unmarked)	1.61
Clc1nc2ccccc2cc1-c1nnn(-c2ccccc2)n1	12.1
O=C(Nc1ccc(S(=O)(=O)N2CCc3ccccc32)cc1)C(F)(F)F	8.75
COC(=O)c1[nH]c(C)c(/C(O)=C2\C(=O)C(=O)N(CCN3CCOCC3)C2c2cccs2)c1C (centres unmarked)	9.33
CN(C)P(=S)(Nc1ccccc1)C(Cl)(Cl)Cl (centres unmarked)	-7.41
CC(C)[C@@H](C(=O)OCC(=O)Nc1ccc2c(c1)OCO2)N1C(=O)c2ccccc2C1=O	-10.2
CC(NC(=S)Nc1ccccc1Cl)C(c1ccccc1)N1CCOCC1 (centres unmarked)	-15.2
Cc1cccc(N2C(=O)N3[C@H](c4ccc(Br)cc4)[C@@H]4C(=O)N(C(C)(C)C)C(=O)[C@@H]4[C@]3(Cc3ccc(Cl)cc3)C2=O)c1	14.7
COc1ccc(OCCSc2nnc(-c3ccoc3C)n2C)cc1	-19.7
N/C(=N\c1nc2c(c(=O)[nH]1)CCCC2)Nc1ccc(Oc2ccccc2)cc1	1.8
COCCN(CC1CCCN(C2Cc3ccccc3C2)C1)C(=O)CSC (centres unmarked)	-10.7
COc1ccc(N=C2C(=Nc3ccc(OC)cc3)N(c3ccc(OC)cc3)C(=S)N2C)cc1	10.5
CC(=O)/C(=N\Nc1ccc(Cl)cc1Cl)Sc1cccc2cccnc12	14.1
O=S(=O)(CC(CN1CCCCC1)N1CCCCC1)c1ccccc1 (centres unmarked)	-14
CC/C(=C/c1ccccc1)c1cccc2[nH]c3c(OC)cccc3c12	23.3
CSc1ccc(C2C(C#N)=C(N)Oc3cc4c(cc32)OCO4)cc1 (centres unmarked)	7.1
O=C1OC(c2ccccc2)=C/C1=C/c1cccs1	10.8
CCCCCCCOC1(c2ccccc2)OC(=O)c2ccccc21 (centres unmarked)	-4.42
Cc1ccc(C)c(N2CCN(C(=O)c3ccc4nsnc4c3)CC2)c1	-1.44
